From the antibiotic and cytotoxicity screens of Wong et al. (2023)
The other results are listed elsewhere or left out.

Each molecule was assayed on HSkMC (human skeletal muscle cells) (assay: cytotoxicity call (relative viability < 0.9)). Conditions: 10 µM.

Row | SMILES | cytotoxicity call
1 | O=c1ccn([C@H]2C[C@H](O)[C@@H](CO)O2)c(=O)[nH]1 | inactive
2 | CC1=C(C(=O)O)N2C(=O)C(NC(=O)C(N)C3=CCC=CC3)C2SC1 (centres undefined) | inactive
3 | CCOc1ccc(CO[C@@H]2O[C@H](CO)[C@@H](O)[C@H](O)[C@H]2NC(C)=O)cc1OC | inactive
4 | CC[C@H](C)[C@H](N)C1=N[C@H](C(=O)N[C@@H](CC(C)C)C(=O)N[C@@H]2CCC(=O)[O][Zn][O]C(=O)C[C@H]3NC(=O)[C@H](Cc4c[nH]cn4)NC(=O)[C@@H](Cc4ccccc4)NC(=O)[C@H]([C@@H](C)CC)NC(=O)[C@@H](CCCN)NC(=O)[C@H](CCCCNC(=O)[C@H](CC(N)=O)NC3=O)NC(=O)[C@H]([C@@H](C)CC)NC2=O)CS1 | inactive
5 | C[C@H](CO)N1C[C@H](C)[C@@H](CN(C)C(=O)c2ccccc2)OCCCC[C@H](C)Oc2ccc(NS(=O)(=O)c3ccc(F)cc3)cc2C1=O | inactive
6 | COC1C=COC2(C)Oc3c(C)c(O)c4c(O)c(c5c(nc6cc(C)ccn65)c4c3C2=O)NC(=O)C(C)=CC=CC(C)C(O)C(C)C(O)C(C)C(OC(C)=O)C1C (centres undefined) | inactive
7 | C[C@H](CO)N1C[C@H](C)[C@@H](CN(C)C(=O)Nc2ccc(C(F)(F)F)cc2)OCCCC[C@H](C)Oc2ccc(NC(=O)c3ccccc3)cc2C1=O | inactive
8 | COc1ccc(S(=O)(=O)N(C)C[C@@H]2Oc3ncc(-c4ccncc4)cc3C(=O)N([C@@H](C)CO)C[C@H]2C)cc1 | inactive
9 | O=C(NO)c1ccc(C(=O)N/N=C/[C@@H](O)[C@H](O)[C@H](O)CO)cc1 | inactive
